Experimental data published in PubChem BioAssay AID1345083 (National Center for Advancing Translational Sciences (NCATS), 2018).
Screen size: about 94,000 compounds; about 6,200 (6.6%) were called active. This list was built around the results that the source calls inconclusive (neither active nor inactive); the mix of calls is not that of the screen. The call rests on the fitted dose curve; in most records, active means well fitted inhibition curve with a large enough effect; inconclusive means small, poorly fitted or top-dose-only effect; inactive means flat fitted curve, though single readings scatter. A potency beside an inconclusive call is a rough fit, not a confirmed value.

test: Cytotoxic Profiling in HEK 293 Cell Line of Diverse Libraries Using Quantitative High-Throughput Screening; conditions: HEK 293 viability, ATP luminescence (CellTiter-Glo), 48-72 h; activity change, negative = cytotoxicity: at 115 µM (top of the series) unless noted; series mostly up to 115 µM; further: nearly all actives have a fitted effect of over 60% in size
In short: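 Luminescence from cellular ATP, measured with CellTiter-Glo, indicates HEK 293 viability. Cells plated at 250 cells/well are treated with compound for 48 or 72 hr at 37 degree Celsius before reagent addition.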
On the % scale 0 is the no-effect control and ±100 the full control effect; potency means the concentration at half of the fitted maximal effect; tags describe the fitted curve by direction and shape.

SMILES | Potency | activity change, negative = cytotoxicity | outcome
O[C@H]1CC[C@@H](Cc2cc(COc3ccccc3)on2)O[C@@H]1CNCc1cccc(Cl)c1 | inconclusive: 50.1 µM [inhibitor, partial curve, poor fit] | – | –
COc1ccc(CC(=O)NC2CCCN(c3cc(-c4ccc(Cl)cc4)[nH]n3)C2)cc1OC (stereo unspecified) | active: 22.4 µM | – | –
Cc1cccc(-n2nc(-c3c(C)nc4scc(CC(=O)NCCc5ccccc5)n4c3=O)cc2C)c1 | inconclusive: 100 µM [inhibitor, single point] | – | –
CC(C)C(=O)N1CCc2ccc(OCc3nc(C(=O)N4CCCC4)co3)cc2C1c1cccc(F)c1 (stereo unspecified) | inconclusive: 11.2 µM [inhibitor, partial curve, poor fit] | – | –
CCc1nc2c(c(-c3ccc(O)cc3)n1)CN(Cc1ccccc1)CC2 | inconclusive: 126 µM [inhibitor, single point] | – | –
CC(=O)N1CCc2nn(CC(=O)Nc3cccc(Br)c3)c(=O)cc2C1 | inconclusive: 89.1 µM [inhibitor, single point] | – | –
CC(=O)NC1(C)CCN(Cc2ccc(-c3ccc(N4CCOCC4)cc3)cc2)C1 (stereo unspecified) | inconclusive: 79.4 µM [inhibitor, partial curve] | – | –
O=C(NCc1ccccc1Cl)C1CCCCN1Cc1ccc(-c2ccsc2)cc1 (stereo unspecified) | active: 35.5 µM | – | –
O=C(Cn1ccn2nc(-c3ccccc3)c(CO)c2c1=O)Nc1ccc(Cl)cc1 | inconclusive: 89.1 µM [inhibitor, single point] | – | –
Cc1sc2ccn(Cc3ccc(F)cc3)c(=O)c2c1C(=O)NCc1cccs1 | inconclusive: 50.1 µM [inhibitor, partial curve, poor fit] | – | –
Fc1ccccc1CN1CCNc2cc(Nc3cccnc3)ncc2C1 | inconclusive: 89.1 µM [inhibitor, partial curve, poor fit] | – | –
C#CCNC(=O)C1CCCCN1Cc1ccc(-c2ccccc2OC)cc1 (stereo unspecified) | inconclusive: 56.2 µM [inhibitor, partial curve, poor fit] | – | –
O=C(Nc1cccc(Cl)c1)[C@@H]1C[C@@H](c2ccc(F)cc2)N([S+](=O)([O-])c2cccnc2)C1 | inconclusive: 56.2 µM [inhibitor, partial curve, poor fit] | – | –
CCCN1C(=O)Cc2cc(C(=O)NC(C)c3ccc(OCC)cc3)ccc21 (stereo unspecified) | inconclusive: 50.1 µM [inhibitor, partial curve, poor fit] | – | –
Cc1cccc(CN2CCc3c(n(Cc4cccnc4)n(-c4ccccc4)c3=O)C2)n1 | – | inactive: -2.43% [at 172 µM] | –
CCc1ccc([S+](=O)([O-])c2nnn3c2nc(NCc2ccncc2)c2ccccc23)cc1 | inconclusive: 70.8 µM [inhibitor, single point] | – | –
O=C1NCCCCCN(C(=O)c2cccs2)[C@@H]2C[C@@H](C(=O)N3CCc4ccccc4C3)C[C@H]12 | inconclusive: 50.1 µM [inhibitor, partial curve, poor fit] | – | –
O=C1NCN(Cc2ccc(Cl)cc2)C12CCN(Cc1cccc(C(F)(F)F)c1)CC2 | – | inactive: 2.76% | –
COCCCNC(=O)c1ccc2nnc(-c3cc(C(F)(F)F)cc(C(F)(F)F)c3)n2c1 | inconclusive: 50.1 µM [inhibitor, partial curve, poor fit] | – | –
COc1cccc(CC(=O)NC2CCN(c3cc(-c4ccc(F)cc4)[nH]n3)C2)c1 (stereo unspecified) | inconclusive: 44.7 µM [inhibitor, partial curve, poor fit] | – | –
COc1ccc(-n2nc3n(c2=O)CCN([S+](=O)([O-])c2ccccc2)C3)cc1 | – | inactive: -8.72% | –

SMILES | Potency | activity change, negative = cytotoxicity | outcome
CCc1ncc2c(N3CC4CCC(C3)N4CC(F)(F)F)nc3ccccc3n12 | active: 39.8 µM | – | –
CC(C)NC(=O)N1CC(C(=O)NCC2CC2)CC(c2ccccc2)C1 (stereo unspecified) | – | inactive: -29.7% | –
COCc1nc2nc(-c3ccccc3)c(-c3cccc(NC(C)=O)c3)cc2n1C | – | inactive: -9.49% [at 172 µM] | –
CC(=O)NC[C@H]1O[C@@H](CO)[C@@H](O)[C@H]1N1CCc2ccccc2C1 | – | inactive: -0.642% [at 172 µM] | –
O=C1Nc2ccc(-c3ccccc3)cc2C(=O)N2CCN(C(=O)c3cccs3)C[C@H]12 | inconclusive: 100 µM [inhibitor, partial curve, poor fit] | – | –
COc1ccc(CC(=O)NC2CCN(c3cc(-c4ccc(F)cc4)[nH]n3)C2)cc1OC (stereo unspecified) | inconclusive: 63.1 µM [inhibitor, partial curve, poor fit] | – | –
CC(C)(C)C(=O)Nc1cc(-c2cccnc2)nn1-c1ccccc1 | inconclusive: 100 µM [inhibitor, partial curve] | – | –
COCCN1Cc2nc(Nc3ccccc3F)ccc2OCC1=O | inconclusive: 126 µM [inhibitor, single point] | – | –
Cc1cc(C)cc(NC(=O)c2cc3n(n2)CC(c2ccc(Cl)cc2)OC3)c1 (stereo unspecified) | inconclusive: 100 µM [inhibitor, partial curve, poor fit] | – | –
Cc1noc(-c2cn(C3CCN(C(=O)COc4ccc(F)cc4)CC3)nn2)n1 | – | inactive: -1.54% | –
COc1ncccc1-c1cc(C(=O)NCc2c(C)cc(C)[nH]c2=O)c2c(c1)N(C)CCO2 | inconclusive: 79.4 µM [inhibitor, partial curve] | – | –
CCOc1ccc(C(=O)NC2CCN(c3cc(-c4ccc(Cl)cc4)[nH]n3)C2)cc1 (stereo unspecified) | inconclusive: 50.1 µM [inhibitor, partial curve, poor fit] | – | –
O=C(NCc1ccccc1F)C1CCN(C(=O)c2ccc(-c3cncnc3)cc2)CC1 | inconclusive: 89.1 µM [inhibitor, single point] | – | –
Fc1ccc2nc([C@H]3CCN(C4CCC4)C3)[nH]c2c1 | inconclusive: 141 µM [inhibitor, partial curve, poor fit] | – | –
COc1ccc(C2Cn3nnc(C(=O)N4CCC(C(=O)NCc5ccc(C)cc5)CC4)c3CO2)cc1 (stereo unspecified) | – | inactive: -5.15% | –
CCOc1cc(=O)n2c(c1C(=O)NCc1ccc3c(c1)OCO3)CCCC2 | – | inactive: -1.37% | –
CN1CCOc2c(C(=O)NCC[S+](C)(=O)[O-])cc(-c3ccccc3F)cc21 | inconclusive: 100 µM [inhibitor, single point] | – | –
CC(=O)N1CCCN(c2ncnc3c2CN(c2cccc(C)c2)C(=O)CN3C)CC1 | – | – | inactive
CN1c2cc(C(=O)N3CCN(c4ccccn4)CC3)ccc2C(=O)N2CCCCC21 (stereo unspecified) | inconclusive: 79.4 µM [inhibitor, partial curve, poor fit] | – | –
O=C(Nc1cccc(F)c1)N1CCC(CCNC(=O)C2(c3ccccc3)CC2)CC1 | inconclusive: 50.1 µM [inhibitor, partial curve, poor fit] | – | –
CCCOc1cc(C)c2c(c1C)C[C@H](C(C)C(=O)N1CCN(CC(=O)O)CC1)CC2 (stereo partly specified) | inconclusive: 100 µM [inhibitor, partial curve, poor fit] | – | –

SMILES | Potency | activity change, negative = cytotoxicity | outcome
CCOc1ccc(C(C)NC(=O)C2CCCN(c3cnc4nccnc4c3)C2)cc1 (stereo unspecified) | inconclusive: 79.4 µM [inhibitor, single point] | – | –
O=C(NCCOc1ccccc1)c1cnc2n1CCN(Cc1ccc3[nH]ccc3c1)CC2 | inconclusive: 100 µM [inhibitor, partial curve, poor fit] | – | –
O=C(N1CCCC1)N1C2CCC1CN(c1ccc(C(F)(F)F)cc1)C2 | inconclusive: 44.7 µM [inhibitor, full curve, poor fit] | – | –
CCN(Cc1noc(CC(C)C)n1)C(=O)c1cnc(-c2ccccn2)[nH]c1=O | inconclusive: 25.1 µM [inhibitor, full curve, poor fit] | – | –
O=C1CC(c2ccccc2)N(Cc2ccc3[nH]ccc3c2)CCCCCN1 (stereo unspecified) | inconclusive: 44.7 µM [inhibitor, partial curve, poor fit] | – | –
CN(Cc1cccc2ncccc12)C(=O)CN1CCOC1=O | – | inactive: -20.2% | –
CCc1nc(-c2ccc(OC3CCN(C(=O)Cc4c[nH]c5ccccc45)C3)cc2)no1 (stereo unspecified) | inconclusive: 39.8 µM [inhibitor, partial curve, poor fit] | – | –
COc1ccc(CNC(=O)CC2CCCN(c3cnn(CC4CC4)c(=O)c3)C2)cc1 (stereo unspecified) | inconclusive: 44.7 µM [inhibitor, partial curve, poor fit] | – | –
O=C(Nc1ccc(F)cc1)c1cc2n(n1)CC(c1ccc3c(c1)OCO3)OC2 (stereo unspecified) | inconclusive: 50.1 µM [inhibitor, partial curve, poor fit] | – | –
O=C(c1ccccc1)N1CCC(C(=O)N2CCCC(c3nc4ncccc4[nH]3)C2)CC1 (stereo unspecified) | – | inactive: -13.3% | –
Cc1ccc2cc(CCC(=O)NCc3ccco3)c(=O)[nH]c2c1 | – | inactive: -4.2% | –
COc1ccc(Cn2c(=O)c(C(=O)N3CCN(C(C)=O)CC3)nc3cccnc32)cc1 | – | inactive: 2.17% | –
Cc1cnc(C(=O)N2CCC3(CC2)NCCc2c3[nH]c3ccccc23)cn1 | inconclusive: 56.2 µM [inhibitor, partial curve, poor fit] | – | –
CC(C)c1ccc(CN2CCC3(CC2)OCCN(C)C3=O)cc1 | inconclusive: 44.7 µM [inhibitor, partial curve, poor fit] | – | –
CNC(=O)c1ccc(CNc2nc(CCN)nc3sc(C)c(C)c23)o1 | active: 50.1 µM | – | –
CC1=C(C(=O)N(C)C)C(c2ccc(Cl)cc2)N2C(CC(=O)NCc3ccccc3)=CSC2=N1 (stereo unspecified) | inconclusive: 8.91 µM [inhibitor, full curve, poor fit] | – | –
N#Cc1ccccc1CN1CCNc2nc(COc3ccccc3)n(Cc3ccccc3)c2C1=O | inconclusive: 35.5 µM [inhibitor, full curve, poor fit] | – | –
CN(C)C(=O)c1nc2cccnc2n(C2CC2)c1=O | – | inactive: 1.87% [at 172 µM] | –
O=C(NCCC1CCN(C(=O)Nc2ccccc2F)CC1)C1CCCC1 | inconclusive: 89.1 µM [inhibitor, single point] | – | –
